# About 4,500 (2.2%) of roughly 200,000 compounds were called active. Inconclusive results, whose numbers are uncertain, are shown with a selection of clear calls. Calls follow the shape of the dose curve; as a rule, active = well fitted inhibition curve with a large enough effect; inconclusive = small, poorly fitted or top-dose-only effect, or effect the other way; inactive = flat fitted curve, though single readings scatter. Potencies beside an inconclusive call are fits to weak or partial responses and may not hold up.
# Biological target: Cruzipain (Trypanosoma cruzi) (UniProt P25779)
# Assay: qHTS Assay for Promiscuous and Specific Inhibitors of Cruzain (without detergent); also: nearly all actives have a fitted effect of over 40% in size;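 as to max response, negative = inhibition: plate controls were enzyme without inhibitor for no effect and buffer without enzyme for full effect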
# Settings: purified cruzain, Z-FR-AMC fluorescence, no detergent
# Summary of the method: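 Purified cruzain at 1.5 nM, pre-incubated 15 min with compound at room temperature in 100 mM sodium acetate pH 5.5, 5 mM DTT, 0.00005% Triton X-100. Reaction started with 2 uM Z-FR-AMC; AMC fluorescence increase over 60 s gives rate.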
# Potency is read from the fitted curve at half-maximal effect; tags tell the direction and shape of the fitted curve.
# Chain of UniProt P25779 (P25779 whole entry, looked up): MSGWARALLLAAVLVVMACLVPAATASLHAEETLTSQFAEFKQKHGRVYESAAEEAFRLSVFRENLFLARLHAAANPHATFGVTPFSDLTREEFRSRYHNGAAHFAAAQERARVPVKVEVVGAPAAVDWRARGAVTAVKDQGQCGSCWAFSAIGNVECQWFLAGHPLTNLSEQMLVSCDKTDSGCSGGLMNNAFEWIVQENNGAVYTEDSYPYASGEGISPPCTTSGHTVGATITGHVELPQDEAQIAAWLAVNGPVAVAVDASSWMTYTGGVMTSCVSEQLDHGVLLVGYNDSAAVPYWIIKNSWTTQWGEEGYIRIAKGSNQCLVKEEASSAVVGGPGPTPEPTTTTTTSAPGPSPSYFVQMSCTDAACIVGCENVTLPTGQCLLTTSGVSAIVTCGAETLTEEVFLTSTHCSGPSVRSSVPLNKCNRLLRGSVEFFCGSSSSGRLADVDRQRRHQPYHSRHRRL
SMILES,Potency,"max response, negative = inhibition"
COc1ccc(C)cc1NC(=O)NC(C)c1c(-n2cccc2)sc(C)c1C (stereo not drawn),"inconclusive: 31.6 µM [inhibitor, single point]",–
CCOc1ccc(CCNC(=O)c2ccc3c(c2)N(Cc2ccc(C)cc2)CCS3)cc1,"inconclusive: 7.94 µM [inhibitor, partial curve]",–
COc1ccc(OC)c(NC(=O)Cn2c(CCC(=O)O)ccc2-c2cccs2)c1,"inconclusive: 39.8 µM [activator, single point]",–
Cc1ccc(-c2cc3nc(-c4ccc(Br)cc4)cc(N)n3n2)cc1,active: 31.6 µM,–
COc1ccc(Br)cc1C(=O)Nc1ccc(N2CCN(S(C)(=O)=O)CC2)cc1,"inconclusive: 31.6 µM [activator, single point]",–
CCCCC/C=C\C[C@@H](O)/C=C/C=C/C=C/[C@@H](O)CCCC(=O)O,–,inactive: -3.9%
COc1cccc(-c2noc(COc3ccccc3Cl)n2)c1,–,inactive: -10.8%
Cc1ccc(C)c(NC(=O)CSc2nc3c(oc4ccccc43)c(=O)n2-c2ccccc2)c1,"inconclusive: 39.8 µM [inhibitor, single point]",–
COc1ccc(Cn2ccnc2SCC(=O)NCc2ccco2)cc1,–,inactive: -5.79%
CCN(CC)CCNC(=O)Cn1nc(C)c2c(C)n(-c3ccccc3)nc2c1=O,–,inactive: -5.67%
C=C(C)Cn1c(SCC(=O)N/N=C/c2c(O)ccc3ccccc23)nc2ccccc2c1=O,active: 15.8 µM,–
Cn1c(/C(C#N)=C/c2ccc(-c3ccc(S(N)(=O)=O)cc3)o2)nc2ccccc21,"inconclusive: 39.8 µM [inhibitor, single point]",–
O=C(CN(c1cccc(C(F)(F)F)c1)S(=O)(=O)c1ccc(Cl)c([N+](=O)[O-])c1)NCc1ccccc1Cl,active: 25.1 µM,–
O=C(Cn1c(=O)oc2cc(S(=O)(=O)N3CCCCC3)ccc21)NCc1ccc(Cl)cc1,"inconclusive: 31.6 µM [activator, single point]",–
CCCCn1c(=NC(=O)c2cc3ccccc3o2)c(C(=O)OCC)cc2c(=O)n3ccccc3nc21,"inconclusive: 3.16 µM [activator, full curve]",–
Cc1cc(C)n(-c2cc(N3CCN(S(=O)(=O)c4ccc(Br)cc4)CC3)ccc2[N+](=O)[O-])n1,"inconclusive: 31.6 µM [inhibitor, single point]",–
Nc1nc(CC(=O)CSc2ccc(Cl)cc2)nc(Nc2ccc(F)cc2)n1,"inconclusive: 39.8 µM [inhibitor, single point]",–
Cc1ccc(S(=O)(=O)N2CCC(=O)N(CCOC(=O)Nc3cc(C)cc(C)c3)CC2)cc1,"inconclusive: 39.8 µM [activator, single point]",–

# — PubChem BioAssay AID1476 (National Center for Advancing Translational Sciences (NCATS), 2009)
